Results as given in publication PMC12040169 (PLOS Biology, 2025).
This is one part of the list.

System: T1, C. trachomatis L2/434/Bu expressing GFP (CTL2-GFP)
T1 construct: L2/434/Bu GFP intracellular growth in HeLa cells
Design: species or system HeLa; C. trachomatis total inclusion area by high-content imaging, normalised to DMSO
Conditions: total inclusion area; 28.5 h, 10 µM; inhibitor
In short: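 Bulk GFP and resorufin signals were read first. Wells were then fixed, stained with Hoechst and imaged to detect GFP inclusions and host nuclei. MICs followed the previously described calculation.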

| SMILES | % of control remaining |
| --- | --- |
| COc1ccc(S(=O)(=O)N(C)CC(=O)NCc2cccnc2)cc1Cl [CBK268089] | 89.739 |
| CC(C)(C)C(=O)N1CCC(c2nc3ccccc3cc2N)CC1 [CBK285039] | 106.585 |
| Cn1nccc1CNCc1cc(Br)ccc1Cl [CBK305100] | 67.2068 |
| O=C(Nc1c(F)cc(F)cc1OC1CCNCC1)c1cccnc1 [CBK050275T] | 92.6819 |
| Cc1cc(C(F)(F)F)nc(NCc2ccco2)n1 [CBK269555] | 93.7716 |
| Cc1c(NC(=O)CSc2nnc3c4ccccc4n(C(C)C)c3n2)c(=O)n(-c2ccccc2)n1C [CBK263916] | 122.298 |
| COCCN1CCOC2(CCN(C(=O)c3ccc4ccccc4c3)CC2)C1c1ccccc1O (stereo not shown) [CBK116232] | 88.2586 |
| CO[C@H]1CNC[C@@H]1NC(=O)c1cccc2c1NCCC2 [CBK307421] | 63.5113 |
| O=S(=O)(c1ccc(Oc2ccc(S(=O)(=O)N3CCCCCC3)cc2)cc1)N1CCCCCC1 [CBK261729] | 95.7662 |
| C(=C\c1ccccc1)/CN1CCN(CCCc2ccccc2)CC1 [CBK261897] | 99.5923 |
| CC(CNC(=O)Cn1nc(C(F)(F)F)c2c1CCC2)N1CCCC1 (stereo not shown) [CBK282212] | 108.229 |
| CN(C)C1c2cccc3cccc(c23)C1NS(C)(=O)=O (stereo not shown) [CBK265851] | 122.864 |
| Cc1nc(C(F)(F)F)ccc1C(=O)N1C=CC(C(F)(F)F)=NCC1 [CBK057187] | 18.2018 |
| CCn1c(CNC(=O)C(C)Cn2cc(Cl)cn2)nc2ccccc21 (stereo not shown) [CBK281392] | 88.5102 |
| Cc1cnn(CCNc2cc(C(C)C)nc3ccnn23)c1 [CBK306792] | 62.6209 |
| COc1ccc(-c2cncc(NCc3ccncc3)n2)cc1 [CBK065394] | 70.7647 |
| COc1ccnc(Cn2ncc(N3CCCC3)cc2=O)c1 [CBK304379] | 98.3139 |
| COc1ccc(C2(C(=O)NCCc3c[nH]cn3)CC2)cc1 [CBK149834] | 94.2202 |
| C=CCN(C)C(=O)[C@H]1C[C@@H](O)[C@H](O)[C@@H]2N=C(Nc3cc(C)cc(C)c3)S[C@@H]21 [CBK288948] | 107.07 |
| Cc1ccc(S(N)(=O)=O)cc1NC(=O)Cc1ccccc1 [CBK024413] | 101.488 |
| O=C(CCc1nc2ccccc2[nH]1)Nc1ccc(F)cc1 [CBK267238] | 87.3568 |
| Cc1ccc(Nc2cc(-c3cccc(N)c3)ncn2)cc1NS(C)(=O)=O [CBK091145] | 135.41 |
| O=C(O)CCC(=O)Nc1nc(-c2ccccc2)cs1 [CBK286947] | 58.8401 |
| CC(C)CCc1csc(C2CN3CCCC3CO2)n1 (stereo not shown) [CBK304266] | 63.2756 |
| O=C(NC(=S)CC1C=NCS1)c1ccccc1 (stereo not shown) [CBK020794] | 82.1868 |
| CS(=O)(=O)N1CC2(CCN(CCc3ccccc3)CC2)c2ccccc21 [CBK084015] | 102.668 |

| SMILES | % of control remaining |
| --- | --- |
| Cc1cc(Cn2nnc(-c3cccnc3)n2)cc(C)c1O [CBK291130] | 99.8127 |
| N#Cc1sc2c(c1NC(=O)C(F)(F)F)CCCC2 [CBK019233] | 72.7843 |
| O=C(O)CCc1ccc(-c2ccc(N3CCN(CCN4CCCC4)CC3)nc2)cc1 [CBK037796] | 119.318 |
| CC(C(=O)NC1(C#N)CCCCC1)N1CCOC(Cn2cncn2)C1 (stereo not shown) [CBK305359] | 31.5779 |
| Cc1cc(C)n(C(C(=O)NCCOc2ccc(F)cc2)C(C)C)n1 (stereo not shown) [CBK281595] | 101.613 |
| O=C(c1ccc(CCN2CCCC2)nc1)N1CCN(CCc2ccccc2)CC1 [CBK200227] | 102.108 |
| Cc1nc(NC(=O)C2CC(=O)N(c3cccc(C(C)C)c3)C2)sc1-c1n[nH]c(=S)n1C (stereo not shown) [CBK295306] | 119.842 |
| N#Cc1ccc(N)c2ccccc12 [CBK015754] | 94.2598 |
| COc1ccc(-c2cc(C(=O)NCc3cc(Cl)cc(Cl)c3)cnc2-c2ccc(Cl)cc2)cn1 [CBK037431] | 123.208 |
| CC(NCC(O)c1ccco1)c1ccc(C#N)s1 (stereo not shown) [CBK304265] | 31.1802 |
| COC(=O)CCCC(=O)n1c(=O)n(Cc2ccc(S(C)(=O)=O)cc2)c2ccccc21 [CBK106538] | 75.1745 |
| CCOC(=O)C1=C(C)N(CCO)C(=O)NC1c1ccccc1Br (stereo not shown) [CBK027192] | 55.0744 |
| NNC(=O)c1cc(O)n[nH]1 [CBK262669] | 103.272 |
| Cc1c(NCc2ccccn2)cccc1C(=O)O [CBK269651] | 84.2293 |
| CCc1cc(-c2n[nH]c(C(=O)O)c2-c2nc(C)cs2)c(O)cc1O [CBK268247] | 96.3458 |
| CCn1c(=O)n(CC(=O)NCc2ccccc2)c2cccnc21 [CBK283824] | 63.8687 |
| COc1ccc(-c2cc(C(F)(F)F)nc(SCC(=O)Nc3ccc4c(c3)OCO4)n2)cc1OC [CBK266169] | 131.974 |
| Oc1cccc(-c2cn3ccnc3c(NCc3ccccn3)n2)c1 [CBK037535] | 117.061 |
| COc1ccc([C@@]23CC[C@@H](NS(=O)(=O)c4cccc5cccnc45)C[C@@H]2N(C)CC3)cc1OC [CBK056849T] | 104.218 |
| CCOc1cc2c(cc1CN(Cc1ccc3c(c1)OCO3)CC(C)O)CCC2 (stereo not shown) [CBK286474] | 95.7886 |
| COc1cc(CNC(=O)c2ccc(-c3ccc(NC(C)=O)cc3)nc2)cc(OC)c1OC [CBK158851] | 109.47 |
| CN1CCC(=NNC(=O)CSCc2ccccc2Br)CC1 [CBK026542] | 83.8462 |
| c1ccc(C2CCCNC2)cc1 (stereo not shown) [CBK011753] | 98.1304 |
| COc1ccc(OC)c(NC(=O)CSc2nnc(-c3ccco3)o2)c1 [CBK267429] | 90.7997 |
| O=c1[nH]c2ccccc2n1C1CCN(S(=O)(=O)c2ccc(OC(F)(F)F)cc2)CC1 [CBK149690] | 100.913 |
| CCNc1nnc(SCCC(=O)N2CCN(c3ccc(F)cc3)CC2)s1 [CBK305058] | 89.7784 |
